{"source": "PubChem BioAssay AID1745845", "about": "(National Center for Advancing Translational Sciences (NCATS), 2022)", "note": "Screen size: about 360,000 compounds; about 2,600 (0.72%) were called active. Inconclusive results, whose numbers are uncertain, are shown with a selection of clear calls. The call rests on the fitted dose curve; in most records, active means well fitted inhibition curve with a large enough effect; inconclusive means small, poorly fitted or top-dose-only effect; inactive means no such curve, though single readings can be large or run the other way. Potencies beside an inconclusive call are fits to weak or partial responses and may not hold up. Potency means the concentration at half of the fitted maximal effect; tags describe the fitted curve by direction and shape."}
{"test": "Primary qHTS for Inhibitors of ATXN expression; further: nearly all actives have a fitted effect of over 55% in size", "conditions": "HEK-293 ATXN2-luciferase reporter, luminescence, 24 h; series mostly up to 57 µM", "how_it_was_run": "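ATXN2-luciferase reporter cells (luciferase flanked by upstream and downstream ATXN2 gene portions) were treated 24 h at 37 °C with compounds at up to 57 uM. SteadyGlo luminescence gave expression; GF-AFC fluorescence gave viability.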"}
{"smiles": "Cn1cncc1[C@@](N)(c1ccc(Cl)cc1)c1ccc2c(c1)c(-c1cccc(Cl)c1)cc(=O)n2C", "Potency": "inconclusive: 38.5 µM [inhibitor, single point]"}
{"smiles": "Cc1cccc(CNc2ccc(C(CC(N)=O)NC(=O)Cc3cccc4ccccc34)cc2[N+](=O)[O-])c1", "note": "(stereo unspecified)", "Potency": "inactive"}
{"smiles": "COc1ccc(Cc2[nH]n3c(=O)cc(C(C)C)nc3c2-c2ccccc2)cc1", "Potency": "active: 22.4 µM"}
{"smiles": "N#CC(CCc1ccc([N+](=O)[O-])cc1)(CCc1ccc([N+](=O)[O-])cc1)C(N)=O", "Potency": "inconclusive: 25.1 µM [inhibitor, partial curve, poor fit]"}
{"smiles": "O=C(/C=C/c1ccc(Cl)cc1)NCCSc1ccccc1", "Potency": "inactive"}
{"smiles": "COc1ccc(N/C(C)=C/C(=O)c2ccccc2)cc1", "Potency": "inactive"}
{"smiles": "CC1(Cc2ccc(Cl)c(Cl)c2)C(=O)Nc2c(Cl)ccc(Cl)c21", "note": "(stereo unspecified)", "Potency": "inconclusive: 35.5 µM [inhibitor, single point]"}
{"smiles": "Cc1ccc(C(c2ccccc2)c2c(C)[nH]c3ccccc23)s1", "note": "(stereo unspecified)", "Potency": "inconclusive: 39.8 µM [inhibitor, single point]"}
{"smiles": "CCCCNC(=O)CSc1nc(COc2ccccc2)nc2ccccc12", "Potency": "inactive"}
{"smiles": "Cc1cc(C)c2c(=O)cc(C(=O)Nc3ccc(S(=O)(=O)N(C)Cc4ccccc4)cc3)oc2c1", "Potency": "inactive"}
{"smiles": "Cc1nn(-c2ccc(F)cc2)c(-n2cccc2)c1C(=O)NCCCN1CCN(c2cccc(Cl)c2)CC1", "Potency": "inconclusive: 25.1 µM [inhibitor, single point]"}
{"smiles": "CC1=C(C(=O)N2CCCCCC2)CC(CC(=O)NC(c2ccccc2)c2ccccc2)C(=O)N1CCC1=CCCCC1", "note": "(stereo unspecified)", "Potency": "inconclusive: 39.8 µM [inhibitor, single point]"}
{"smiles": "O=C(NC1CC2CCC(C1)N2Cc1ccccc1)c1ccccc1Cl", "note": "(stereo unspecified)", "Potency": "inactive"}
{"smiles": "CCCCCCCCC[n+]1cccc2c3ccccc3ccc21", "Potency": "active: 2.24 µM"}
{"smiles": "c1coc(C2=Nc3cccc4cccc(c34)N2)c1", "Potency": "inactive"}
{"smiles": "Cc1cc(C(=O)N/N=C\\c2cc(C(C)(C)C)ccc2O)n[nH]1", "Potency": "inconclusive: 4.47 µM [inhibitor, full curve]"}
{"smiles": "COc1cccc(N2[C@@H](CC(C)=O)c3ccc(/C=C/C(C)=O)cc3S2(=O)=O)c1", "Potency": "inconclusive: 31.6 µM [inhibitor, single point]"}
{"smiles": "CCC(C)n1c(=O)c(C(=O)Nc2ccccc2S(N)(=O)=O)c(O)c2ccccc21", "note": "(stereo unspecified)", "Potency": "inconclusive: 22.4 µM [inhibitor, single point]"}
{"smiles": "CCC1Sc2ccccc2N(CC(=O)NCc2ccccc2OC)C1=O", "note": "(stereo unspecified)", "Potency": "inactive"}
{"smiles": "COc1cc(Cl)c(C)cc1NC(=O)Cn1ncc2c(=O)oc3ccccc3c21", "Potency": "inactive"}
{"smiles": "O=C(C[C@H]1C/C=C\\C[C@@H](NC(=O)OCC2c3ccccc3-c3ccccc32)C(=O)O[C@@H](c2ccccc2)CNC1=O)N[C@H](CO)Cc1ccccc1", "Potency": "inconclusive: 35.5 µM [inhibitor, single point]"}
{"smiles": "N#Cc1c(NC(=O)CSc2nnc(-c3ccccc3)o2)sc2c1CCCC2", "Potency": "inconclusive: 39.8 µM [inhibitor, single point]"}
{"smiles": "COc1cccc(-c2nc(CS(=O)(=O)CC(=O)Nc3cc(C)ccc3C)c(C)o2)c1", "Potency": "inconclusive: 7.94 µM [inhibitor, partial curve, poor fit]"}
{"smiles": "CCCNC(=S)N1CCN(c2nc(-c3ccc(C)cc3)cs2)CC1", "Potency": "inconclusive: 2 µM [inhibitor, partial curve, poor fit]"}
{"smiles": "CN(C)c1ccccc1C(=O)N1CCCC(C(=O)c2ccc3ccccc3c2)C1", "note": "(stereo unspecified)", "Potency": "inconclusive: 29.9 µM [inhibitor, single point]"}
{"smiles": "CC(C)(C)C1CCc2sc(C(=O)NNC(=O)CCl)cc2C1", "note": "(stereo unspecified)", "Potency": "inconclusive: 6.7 µM [inhibitor, full curve, poor fit]"}
{"smiles": "COc1ccc(NC(=O)CCN2C(=O)C3C4CCC(C4)C3C2=O)cc1", "note": "(stereo unspecified)", "Potency": "inactive"}
{"smiles": "O=C(CN1C(=O)C2(CCCC2)NC[C@H]1c1cc(F)cc(F)c1)Nc1ccc2c(c1)C[C@@]1(C2)C(=O)Nc2ncccc21", "Potency": "inactive"}
{"smiles": "O=C(Nc1cccc2c1CCCC2)c1ccccc1Cl", "Potency": "inactive"}
{"smiles": "COc1ccc(NC(=O)CCc2c(C)nc3c(c2C)c(=O)n(C)c(=O)n3C)cc1OC", "Potency": "inactive"}
{"smiles": "COc1ccc(C(c2nnnn2C2CCCC2)N2CCN(C(=O)c3ccco3)CC2)cc1OC", "note": "(stereo unspecified)", "Potency": "inconclusive: 31.6 µM [inhibitor, partial curve, poor fit]"}
{"smiles": "CCN(CC)C(=O)[C@H]1C[C@H](CC(=O)NCc2cccc(C(F)(F)F)c2)C(=O)N2CCc3c([nH]c4ccc(Cl)cc34)[C@]12C", "Potency": "inconclusive: 39.8 µM [inhibitor, single point]"}
{"smiles": "CC(C)CC1C(=O)N(Cc2cn(CC3CCCCC3)nn2)CCS(=O)(=O)N1Cc1ccc(-c2cccc(CO)c2)cc1", "note": "(stereo unspecified)", "Potency": "inconclusive: 17.8 µM [inhibitor, partial curve, poor fit]"}
{"smiles": "S=c1[nH]nc(-c2cc(-c3ccco3)[nH]n2)n1-c1cccc2ccccc12", "Potency": "inconclusive: 28.2 µM [inhibitor, partial curve, poor fit]"}
{"smiles": "COC(=O)c1ccc(Nc2c([N+](=O)[O-])ccc3nonc23)cc1", "Potency": "inactive"}
{"smiles": "O=C1NN(c2ccccc2)C(=O)/C1=C\\c1cccc(OC(=O)c2cccs2)c1", "Potency": "inconclusive: 14.1 µM [inhibitor, partial curve, poor fit]"}
{"smiles": "CSc1ccc(CCNC(=O)c2ccc(CS(=O)(=O)c3ccc(Br)cc3)o2)cc1", "Potency": "inconclusive: 25.1 µM [inhibitor, single point]"}
{"smiles": "CCOc1ccc(NC(=O)c2ccc(N3CC4CC(C3)c3cccc(=O)n3C4)c(NC(=O)c3cccnc3)c2)cc1", "note": "(stereo unspecified)", "Potency": "inactive"}
{"smiles": "OC(CN1CCCCC1)Cn1c2ccccc2c2cc(Br)ccc21", "note": "(stereo unspecified)", "Potency": "inconclusive: 35.5 µM [inhibitor, single point]"}
{"smiles": "c1coc(CN(Cc2ccco2)c2ncnc3c2oc2ccccc23)c1", "Potency": "inconclusive: 20 µM [inhibitor, partial curve, poor fit]"}
{"smiles": "c1ccc2sc(NN=C3CCCCCC3)nc2c1", "Potency": "inconclusive: 11.2 µM [inhibitor, single point]"}
{"smiles": "CCc1ccc(C2c3c(-c4cc(C)ccc4O)n[nH]c3C(=O)N2Cc2cccnc2)cc1", "note": "(stereo unspecified)", "Potency": "inconclusive: 35.5 µM [inhibitor, single point]"}
{"smiles": "c1ccc(-c2ccc(-c3nc(-c4ccccn4)no3)cc2)cc1", "Potency": "inconclusive: 1.41 µM [inhibitor, full curve, poor fit]"}
{"smiles": "O=C(Nc1nnc(-c2ccccc2)o1)c1nc2ccccc2s1", "Potency": "inconclusive: 39.8 µM [inhibitor, single point]"}
{"smiles": "CCN1C(=O)/C(=c2\\o/c(=C3\\C=Cc4ccccc4N3CC)c(=O)n2CC)SC1=S", "Potency": "inactive"}
{"smiles": "COc1ccc(-c2coc3c(C(=O)NCCc4ccccc4)cccc23)c(C)c1", "Potency": "inconclusive: 22.4 µM [inhibitor, partial curve, poor fit]"}
{"smiles": "Cc1ccc(CSCCNC(=O)CCSc2ccccc2)cc1", "Potency": "inconclusive: 12.6 µM [inhibitor, partial curve, poor fit]"}
{"smiles": "CC(C)CC[n+]1ccn(C2=C([O-])c3ccccc3C(=O)/C2=N\\S(=O)(=O)c2ccccc2)c1", "Potency": "active: 31.6 µM"}
{"smiles": "O=C(N/N=C/c1ccncc1)c1ccc(-n2cccc2)cc1", "Potency": "inactive"}
{"smiles": "CC(=O)N1c2ccc(S(=O)(=O)N3CCCCCC3)cc2CC1C(=O)NCc1ccccc1F", "note": "(stereo unspecified)", "Potency": "inactive"}
{"smiles": "COc1ccccc1OCCn1cc(/C=N/n2cnnc2)c2ccccc21", "Potency": "inactive"}
{"smiles": "CN(/N=C/c1cc(Br)cc(Br)c1O)c1cccc(C(F)(F)F)n1", "Potency": "inconclusive: 33.6 µM [inhibitor, single point]"}
{"smiles": "O=C(CCl)NCc1cc(-c2ccc(Cl)cc2)no1", "Potency": "inconclusive: 21.2 µM [inhibitor, single point]"}
{"smiles": "COC(=O)C1=C(N)Oc2cc(C)n(CCCn3ccnc3)c(=O)c2C1c1cccc(Cl)c1", "note": "(stereo unspecified)", "Potency": "inconclusive: 3.16 µM [inhibitor, partial curve, poor fit]"}
{"smiles": "O=C(/C=C/c1ccccc1)Oc1ccc(C(=S)N2CCOCC2)cc1", "Potency": "inactive"}
{"smiles": "CC(C)c1cnn2c(NCc3ccccc3)cc(N[C@@H](CO)[C@H](O)CO)nc12", "Potency": "active: 0.273 µM"}
{"smiles": "CCOC(=O)c1c(NC(=O)/C=C\\C(=O)O)sc(C)c1-c1ccccc1", "Potency": "inconclusive: 39.8 µM [inhibitor, partial curve, poor fit]"}
{"smiles": "CCC(C)(C)NC(=O)Cn1c(=O)ccc2cc(S(=O)(=O)N3CCC(C)CC3)ccc21", "Potency": "inactive"}
{"smiles": "O=C(OCn1ncc(Cl)c(Cl)c1=O)c1ccccc1Cl", "Potency": "inconclusive: 14.1 µM [inhibitor, partial curve, poor fit]"}
{"smiles": "COc1ccccc1NC(=S)NCc1ccc(S(N)(=O)=O)cc1", "Potency": "inactive"}
{"smiles": "O=C(COC(=O)CSc1ccc2ccccc2c1)NC1CCCC1", "Potency": "inconclusive: 22.4 µM [inhibitor, partial curve, poor fit]"}
{"smiles": "CCc1c(C)nc2ncnn2c1N1CCC(C(=O)Nc2ccc(C)cc2)CC1", "Potency": "inconclusive: 14.1 µM [inhibitor, partial curve]"}
{"smiles": "COc1cccc(CNc2nc(C(F)(F)F)nc3ccccc23)c1", "Potency": "inconclusive: 14.1 µM [inhibitor, partial curve]"}
{"smiles": "CCc1ccc(NC(=O)c2cccc(NC3=NC4CS(=O)(=O)CC4S3)c2)cc1", "note": "(stereo unspecified)", "Potency": "inconclusive: 0.282 µM [inhibitor, partial curve, poor fit]"}
{"smiles": "O=C(COc1ccc(Cl)cc1)NCCc1csc(-c2ccc(F)cc2)n1", "Potency": "inconclusive: 25.1 µM [inhibitor, partial curve, poor fit]"}
{"smiles": "CC(=O)N1N=C(c2ccc(Cl)cc2)CC1c1ccc([N+](=O)[O-])cc1", "note": "(stereo unspecified)", "Potency": "inactive"}
